{
  "source": "ChEMBL document CHEMBL4888484",
  "about": "“Replenishing the malaria drug discovery pipeline: Screening and hit evaluation of the MMV Hit Generation Library 1 (HGL1) against asexual blood stage Plasmodium falciparum ,using a nano luciferase reporter read-out” (2022)",
  "note": "About 540 (0.36%) of roughly 150,000 compounds showed an effect of 50% or more. The list shows a part of the results.",
  "data": [
    {"tested_on": "Plasmodium falciparum", "assay": "Primary screen in NF54 nanoGlo assay, in single point, at 2uM, 72h; a lower Z score goes with more inhibition", "type": "functional, Erythrocyte", "conditions": "timepoint 72 hour", "units": {"% Inhibition": "%"}, "values": [
      {"smiles": "c1ncc(-c2n[nH]c(C3CCCCC3)n2)cn1", "% Inhibition": 15, "Z score": -2.09},
      {"smiles": "O=C(C[C@@H]1N=C(O)N(CCc2cccc(F)c2)C1=O)N1CCc2ccccc2C1", "% Inhibition": -2, "Z score": 0.16},
      {"smiles": "O=C(CC1CCC(F)(F)CC1)Nc1ccc(Oc2cccnn2)cc1", "% Inhibition": -8, "Z score": 1.24},
      {"smiles": "CN(C)C(=O)c1ccc(Br)cc1Cl", "% Inhibition": -10, "Z score": 1.05},
      {"smiles": "O=C(NCCc1ccc(F)cc1)[C@H]1C[C@@H](O)CN1", "% Inhibition": -14, "Z score": 2.45},
      {"smiles": "CCc1nc(-c2ccccc2)nc(N2CCN(S(=O)(=O)CC)CC2)c1Cc1ccc(F)cc1", "% Inhibition": -7, "Z score": 0.9},
      {"smiles": "CCOc1cc([C@H]2Nc3ccccc3C(=O)N2c2ccc3c(c2)OCO3)ccc1O", "% Inhibition": -3, "Z score": 0.49},
      {"smiles": "O=C(Nc1nc(-c2ccc3c(c2)OCCO3)cs1)c1ccc2[nH]cnc2c1", "% Inhibition": 15, "Z score": -2.7},
      {"smiles": "Cc1nc(CNC(=O)COc2ccc(Cl)cc2)n[nH]1", "% Inhibition": -13, "Z score": 1.9},
      {"smiles": "c1cncc(CN2CC[C@H](c3nc4ccccc4s3)C2)c1", "% Inhibition": 22, "Z score": -2.55},
      {"smiles": "CC(C)N(CC(=O)Nc1nc(CC(=O)N[C@@H](C)CCc2ccccc2)cs1)C(=O)c1ccc(F)cc1", "% Inhibition": -1, "Z score": 0.13},
      {"smiles": "CN(C)c1cccc(Oc2nnnn2[C@H]2CO[C@H]3[C@@H]2OC[C@@H]3NC(=O)NCc2ccccc2)c1", "% Inhibition": -7, "Z score": 1.08},
      {"smiles": "CCn1nccc1NC(=O)[C@@]1(C)CC1(F)F", "% Inhibition": 0, "Z score": -0.01},
      {"smiles": "CCCNc1nc(-c2cc(C(=O)N(C)C)cs2)cs1", "% Inhibition": -20, "Z score": 1.78},
      {"smiles": "CN(c1cnn(C)c1)S(=O)(=O)CC1(C(F)(F)F)CCC1", "% Inhibition": 12, "Z score": -1.43},
      {"smiles": "CNC(=O)c1noc(CN(Cc2ccc(C)s2)C2CCCC2)n1", "% Inhibition": 8, "Z score": -1.07},
      {"smiles": "CCCn1cc(NC(=O)NC[C@H]2CC(=O)N(C3CC3)C2)cn1", "% Inhibition": -17, "Z score": 2.17},
      {"smiles": "Cn1nc(-c2nc(C3CCOCC3)no2)c2c1CN(C(=O)C1(C)CCCCC1)C2", "% Inhibition": 2, "Z score": -0.28},
      {"smiles": "CC[C@H](NC1CCCC1)c1nc(C)c[nH]1", "% Inhibition": 0, "Z score": -0.02},
      {"smiles": "O=C(CN1CCN(c2ccccc2)C1=O)N[C@H]1CC[C@H](Oc2cnccn2)CC1", "% Inhibition": -14, "Z score": 1.62},
      {"smiles": "CC1CCCN(C(=O)NCC2CCCN(C(C)C)C2)C1", "note": "(centres undefined)", "% Inhibition": -4, "Z score": 0.54},
      {"smiles": "COc1ccccc1-n1c(=O)n(C2CCCC2)c(=O)c2c1ncn2[C@@H](C)c1ccccc1", "% Inhibition": 3, "Z score": -0.33},
      {"smiles": "COC(C)(C)C(=O)Nc1ccc(C(C)=O)cn1", "% Inhibition": -1, "Z score": 0.1},
      {"smiles": "O=C(NCC1CC1)C1Cc2ccccc2N2CCN(c3ccc(F)cc3)CC12", "note": "(centres undefined)", "% Inhibition": 1, "Z score": -0.18},
      {"smiles": "CC1=C(C(=O)N2CCOCC2)[C@H](c2cccc(O)c2)n2ncnc2N1", "% Inhibition": -2, "Z score": 0.2},
      {"smiles": "CC(C)(C)NCC(=O)Nc1ccc(F)cc1", "% Inhibition": 1, "Z score": -0.18},
      {"smiles": "CN(CC(=O)Nc1sc2c(c1C#N)CCCC2)S(=O)(=O)c1ccccc1", "% Inhibition": -9, "Z score": 1.01},
      {"smiles": "O=C(c1ccc(F)cc1)N1CCN=C1c1ccccc1", "% Inhibition": -11, "Z score": 1.39},
      {"smiles": "Cc1nc(CNC(C)C2CCCO2)no1", "note": "(centres undefined)", "% Inhibition": -6, "Z score": 0.88},
      {"smiles": "O=S(=O)(/N=C(/N1CCOCC1)C(Cl)(Cl)Cl)c1ccccc1", "% Inhibition": -3, "Z score": 0.42},
      {"smiles": "CCC[C@@]1(C)C(=O)NCCN1C(=O)c1cscn1", "% Inhibition": 1, "Z score": -0.24},
      {"smiles": "NS(=O)(=O)c1cccc(NC(=O)CCC(=O)c2ccc3c(c2)OCCO3)c1", "% Inhibition": -18, "Z score": 2.91},
      {"smiles": "COCCN1CCC(CN(Cc2ccncc2)Cc2cc(C)c(C)o2)CC1", "% Inhibition": -30, "Z score": 4.08},
      {"smiles": "CC(CNC(=O)C1C2CCCC21)c1nc2ccccc2s1", "note": "(centres undefined)", "% Inhibition": -17, "Z score": 2.06},
      {"smiles": "CCOc1ccc2c(c1)C(=C1SC(C(=O)OC)=C(C(=O)OC)S1)C(=S)C(C)(C)N2C(=O)CN1C(=O)CCC1=O", "% Inhibition": -13, "Z score": 1.49},
      {"smiles": "CC(C)(C)OC(=O)NCCc1nnc(N)o1", "% Inhibition": -1, "Z score": 0.18},
      {"smiles": "COCCC(=O)Nc1cc(C(F)(F)F)ccc1Br", "% Inhibition": -4, "Z score": 0.46},
      {"smiles": "NC(=O)c1cccc(NC(=O)CCC2CCCCC2)n1", "% Inhibition": -17, "Z score": 3.15},
      {"smiles": "CC(NC(=O)c1ccc(S(=O)(=O)N2CCCCCC2)cc1)C1CC2CCC1C2", "note": "(centres undefined)", "% Inhibition": 7, "Z score": -0.71},
      {"smiles": "C[C@@H](CCC(=O)N1CCc2nocc2C1)N1CCOCC1", "% Inhibition": -7, "Z score": 0.95},
      {"smiles": "COCC1(O)CCN(C(=O)N[C@H](C)c2cc(C)ccc2OC)CC1", "% Inhibition": -3, "Z score": 0.4},
      {"smiles": "CN(C(=O)[C@@H]1C[C@H]1C(=O)N(C)C1(C#N)CCC1)C1(C#N)CCC1", "% Inhibition": -6, "Z score": 1.04}
    ]}
  ]
}
